The results in this text go back to the supplement of paper PMC4166925.

± gives the standard deviation of the averaged measurements. Whole data set: some 33,000 sequences, median “E-score (dimensionless, -0.5 to 0.5)” near -0.046, cut for the highest 2% near 0.36. This is one part of the list.

The test system of this assay is T1, SpTbr T-box DNA-binding domain (GST fusion).
T1 sequence: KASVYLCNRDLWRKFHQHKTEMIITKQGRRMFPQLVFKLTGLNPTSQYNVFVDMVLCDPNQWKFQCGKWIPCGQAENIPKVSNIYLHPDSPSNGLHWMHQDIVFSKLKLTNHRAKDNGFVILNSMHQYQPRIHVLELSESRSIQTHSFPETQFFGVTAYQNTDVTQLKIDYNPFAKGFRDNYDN
Description: PBM E-score of 8-mer (E-score (dimensionless, -0.5 to 0.5)); Tbr is Tbrain of the sea star Patiria miniata (Pm) or the sea urchin Strongylocentrotus purpuratus (Sp); higher = stronger binding preference; most listed sequences are background and not binding sites. The conditions noted are these: the construct has about 5 more residues each side. Summed up: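 Universal Agilent oligonucleotide arrays, made double-stranded by primer extension, were incubated with 200 nM GST-fused Tbr T-box DNA-binding domain in PBS (pH 7.5). The protein was expressed in BL21 E. coli at 20 °C and purified by glutathione affinity chromatography. After scanning and quantification, the Universal PBM Analysis Suite assigned an enrichment E-score to each ungapped 8-mer, averaged over duplicate arrays.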
Turning to CCGCCGGC, the “PBM E-score of 8-mer” value is -0.0836 ± 0.039. The value for CTTTCCCC was -0.0358 ± 0.012. In the case of ACTGAAAC it was -0.0367 ± 0.048; in that of ACACAAAA, 0.146 ± 0.047. AATGCGCG: the “PBM E-score of 8-mer” value was 0.0921 ± 0.011. Turning to GTGGTAGA, the “PBM E-score of 8-mer” value is 0.0762 ± 0.0054.

Take CTCGCGCA: the “PBM E-score of 8-mer” value came out at 0.248 ± 0.021. As for ACACGCCT, the “PBM E-score of 8-mer” value is 0.283 ± 0.016. In the case of ATCTGCTA it was 0.0331 ± 0.0079; in that of ACGTTGAC, 0.325 ± 0.057; in that of CAAGGCGG, -0.0373 ± 0.013. In the case of AGAAGCTA it was -0.0972 ± 0.041; in that of ATACCCAA, -0.32 ± 0.07; in that of AATGGCAC, 0.209 ± 0.032. For GTCCCCAA, the “PBM E-score of 8-mer” value came out at 0.0238 ± 0.011. The value for GCAGGTAA was -0.0374 ± 0.063; that for CCGTCGAC was 0.112 ± 0.032; that for GCTGATAC was -0.0434 ± 0.0089. In the case of CCCCAGGA it was -0.118 ± 0.0089; in that of AATGACCG, -0.0301 ± 0.079. In the case of ACCGGTGG it was -0.0227 ± 0.038. With CCACAGAC, the “PBM E-score of 8-mer” value is -0.083 ± 0.056. In the case of GGACTCAC it was -0.124 ± 0.0017; in that of CGACCCCC, -0.11 ± 0.0058; in that of GAGGTCAC, 0.205 ± 0.0031. In the case of ACGAAAGC it was -0.0903 ± 0.043; in that of ATGAACCG, 0.0284 ± 0.03; in that of ACCTTAAG, 0.109 ± 0.0011. Take CCCCGAAA: the “PBM E-score of 8-mer” value was -0.122 ± 0.064. In the case of AATCGTCG it was 0.0682 ± 0.095; in that of TAATCACA, 0.195 ± 0.056; in that of CTAGCGTC, -0.00139 ± 0.029. On to ACTGTATA, for which the “PBM E-score of 8-mer” value is -0.0709 ± 0.035. For the sequence AGTGATCG, the “PBM E-score of 8-mer” value came out at 0.155 ± 0.00032. The value for ATGAACGG was -0.162 ± 0.022. In the case of CAAAGAAC it was -0.00702 ± 0.007; in that of ACCTCAAC, -0.0458 ± 0.091. In the case of CCATCAGA it was -0.152 ± 0.041; in that of GTATAGAA, -0.051 ± 0.037. As for AGGATCAC, the “PBM E-score of 8-mer” value is -0.0644 ± 0.0047. In the case of CCCTCAAG it was 0.0833 ± 0.0098; in that of CTGACGTA, 0.00893 ± 0.00035. The value for CTCGGTGA was 0.0792 ± 0.037; that for GAGAGATA was -0.094725 ± 7.8e-05. In the case of CCTACAAG it was -0.162 ± 0.023. Consider ATGATAGA, for which the “PBM E-score of 8-mer” value is -0.242 ± 0.0043. In the case of CGACTCTA it was 0.0596 ± 0.075; in that of CCCTGACC, -0.2 ± 0.05. The value for CACCACAG was 0.0791 ± 0.052; that for ACCAAACA was 0.177 ± 0.0058; that for ACAGCCCC was -0.091 ± 0.047.

As for GCGCAGAC, the “PBM E-score of 8-mer” value amounted to 0.197 ± 0.026.

Turning to CTCCCGAC, the “PBM E-score of 8-mer” value was 0.0714 ± 0.0088. In the case of AAGGCTTC it was -0.242 ± 0.0041; in that of ACGCGATG, 0.125 ± 0.0073. The value for CCAGAAGA was -0.196 ± 0.043; that for CCTTTCAA was -0.311 ± 0.027; that for CGGTTCAG was -0.07241 ± 0.00023.

Consider CAGAAATG, for which the “PBM E-score of 8-mer” value was -0.202 ± 0.012. In the case of GGGTGAGA it was 0.424 ± 0.0073; in that of AACGAGCG, 0.0213 ± 0.0072. The value for AAGTCGCG was 0.234 ± 0.0035; that for ATTCTGCG was -0.00673 ± 0.004.

With AATCTGGC, the “PBM E-score of 8-mer” value was -0.144 ± 0.055. In the case of GATGCTCA it was 0.0265 ± 0.016. The value for GGACAGTA was -0.134 ± 0.037; that for CACCTGAA was 0.29 ± 0.0089; that for CTGCTTTA was 0.0222 ± 0.037. In the case of TCGGTTCA it was -0.122 ± 0.0079. Consider CACCTATC, for which the “PBM E-score of 8-mer” value worked out at 0.358 ± 0.012. In the case of CTACCGGA it was -0.152 ± 0.039; in that of TAAAATAA, -0.0967 ± 0.032; in that of CGGACTTC, -0.0705 ± 0.0044. The value for GCTCGACC was -0.0869 ± 0.032. The value for ACAGTAAT was 0.228 ± 0.03. Turning to CTGGTGCC, the “PBM E-score of 8-mer” value stood at 0.141 ± 0.076.

For ATACCATA, the “PBM E-score of 8-mer” value is -0.0336 ± 0.003.

For CGTTGAGC, the “PBM E-score of 8-mer” value is -0.16 ± 0.043. The value for ACGCCCGT was 0.0933 ± 0.011. In the case of TGGACGAA it was -0.00239 ± 0.0088; in that of AAATAACT, -0.101 ± 0.03; in that of CATTAAGG, -0.146 ± 0.013. In the case of CGACACCG it was 0.257 ± 0.037; in that of AGCTATGG, -0.223 ± 0.035; in that of ACGGCGAA, 0.000705 ± 0.055. Turning to ATCTGTAC, the “PBM E-score of 8-mer” value is -0.0193 ± 0.045.
